Test results published in PMC4336329 (PLoS ONE, 2015).
The campaign covered roughly 310,000 compounds. About 14,000 (4.5%) showed an effect of 50% or more. Effects have a minus sign here. The list shows a part of the results.

biological target: human ether-à-go-go-related gene (hERG) potassium channel (human, UniProt Q12809); assay: primary screen, population patch clamp on CHO cells stably expressing hERG
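Also: peak tail current of the secondary pulse compared with the same well before compound.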

Sequence of human ether-à-go-go-related gene (hERG) potassium channel (Q12809 whole entry, looked up): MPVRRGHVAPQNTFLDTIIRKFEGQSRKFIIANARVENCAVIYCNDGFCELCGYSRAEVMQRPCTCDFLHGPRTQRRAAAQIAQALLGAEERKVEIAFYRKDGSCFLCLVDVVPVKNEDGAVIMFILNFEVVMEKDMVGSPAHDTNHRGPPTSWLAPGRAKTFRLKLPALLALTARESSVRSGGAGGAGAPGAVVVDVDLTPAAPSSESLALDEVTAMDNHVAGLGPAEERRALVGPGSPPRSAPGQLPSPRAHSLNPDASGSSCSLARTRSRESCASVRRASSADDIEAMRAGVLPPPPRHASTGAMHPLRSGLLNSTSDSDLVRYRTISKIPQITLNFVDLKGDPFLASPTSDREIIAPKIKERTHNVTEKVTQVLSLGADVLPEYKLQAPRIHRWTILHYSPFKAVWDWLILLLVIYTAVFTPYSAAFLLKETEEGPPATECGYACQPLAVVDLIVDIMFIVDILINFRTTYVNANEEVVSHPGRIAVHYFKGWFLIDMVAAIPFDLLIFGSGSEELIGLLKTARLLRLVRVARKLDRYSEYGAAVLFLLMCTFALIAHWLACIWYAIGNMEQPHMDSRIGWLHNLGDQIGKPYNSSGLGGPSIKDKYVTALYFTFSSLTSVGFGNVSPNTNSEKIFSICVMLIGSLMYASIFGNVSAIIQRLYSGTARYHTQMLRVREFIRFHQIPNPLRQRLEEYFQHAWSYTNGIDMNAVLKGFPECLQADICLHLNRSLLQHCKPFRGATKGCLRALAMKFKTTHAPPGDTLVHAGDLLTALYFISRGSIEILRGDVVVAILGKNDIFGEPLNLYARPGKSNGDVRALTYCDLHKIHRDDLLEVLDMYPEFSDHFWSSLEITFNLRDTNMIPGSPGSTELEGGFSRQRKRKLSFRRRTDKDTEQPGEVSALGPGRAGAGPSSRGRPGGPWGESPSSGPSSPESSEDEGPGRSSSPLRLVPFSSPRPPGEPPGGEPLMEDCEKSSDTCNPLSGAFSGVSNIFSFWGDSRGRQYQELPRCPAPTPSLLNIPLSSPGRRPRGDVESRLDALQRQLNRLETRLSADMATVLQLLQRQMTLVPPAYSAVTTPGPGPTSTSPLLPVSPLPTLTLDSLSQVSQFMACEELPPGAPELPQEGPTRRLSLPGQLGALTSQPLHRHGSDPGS

Row | Structure (SMILES) | hERG current change (%, negative = inhibition) at 10uM [%]
1 | COc1ccc(S(=O)(=O)N/N=C(/C)c2ccc(C)o2)cc1 | -3.77
2 | NNC(=O)CSc1ncc(-c2ccccc2)[nH]1 | 37.3
3 | O=C(O)c1c(F)c(F)cc2ccccc12 | -3.2
4 | COc1ccc(CN(C)C(c2ccccc2)c2nnnn2-c2ccccc2C)c(OC)c1C (stereo not shown) | 17.6
5 | COc1ccc(CC(=O)Nc2ccccc2C(C)=O)cc1S(=O)(=O)N1CCOCC1 | -15.3
6 | CC(C)(O)C#Cc1ccc(C(=O)N2CCN(c3ccc(F)cc3)CC2)cc1 | -11.4
7 | COc1ccc(NC(=O)N2CCC(n3nnc4cc(C)ccc43)CC2)cc1 | -11.3
8 | CCCCN1C(=O)c2ccc(C(=O)NC3=NCCS3)cc2C1=O | 5.86
9 | O=C(NNC(=O)c1cccnc1)Nc1cccc(Cl)c1Cl | 15.8
10 | O=C(CN1CCN(c2cccc(C(F)(F)F)c2)CC1)N(C1CCCC1)C1CCS(=O)(=O)C1 (stereo not shown) | -30.3
11 | CC(=O)OC1N=C(c2ccccc2)c2cc(Br)ccc2N(C)C1=O (stereo not shown) | -19.2
12 | C=CCn1c(SCC(=O)N2CCOCC2)nc(O)cc1=O | 17.5
13 | O=C(C1CCN(c2nc(-c3ccccc3)nc3c2CCC3)CC1)N1CCCC1 | -35.8
14 | CC(C)C(NC(=O)CSc1ccc(Cl)cc1)C(C)C | 1.46
15 | C=CCn1c(CNS(=O)(=O)c2ccc(F)cc2)n[nH]c1=S | 16.9
16 | COCCNCc1ccccc1[N+](=O)[O-] | 1.14
17 | COc1ccc(C2(CNC(=O)c3ccc(OC)c([N+](=O)[O-])c3)CCCCC2)cc1OC | -20.7
18 | Cn1ccnc1SCC(=O)Nc1cccc(S(=O)(=O)N2CCCCCC2)c1 | -33.5
19 | Cc1ccnc(NC(=O)c2ccc(Br)s2)c1.Cl | -5.88
20 | CCCn1c(=O)[nH]c(=O)c2c1nc(-c1ccccc1)n2CCN1CCOCC1 | -15.3
21 | O=C(CCNC(=O)c1ccc(Br)cc1)NCc1cccnc1 | -0.472
22 | O=C(Nc1cccc(S(=O)(=O)N2CCCC2)c1)c1ccccc1OC(F)F | -13.7
23 | Oc1ccc(Br)cc1CNc1cnc2ccccc2c1 | 16.4
24 | O=S(=O)(NC1CCCCC1Oc1ccccc1)c1ccc(Cl)cc1 (stereo not shown) | -13.1
25 | O=C(C[n+]1cn(C(F)F)c2ccccc21)c1ccc(Br)cc1.[Br-] | -9.95
